Results: a collection of fitness landscapes (doi:10.1016/j.celrep.2020.107928)
Over roughly 81,000 sequences, “one-hybrid fitness for binding parS DNA” has its median near -0.17; the highest 2% begin near 0.51. Some of the results follow.

B1: Caulobacter ParB omega fusion; a variant is named by its letters at X, in order, B8GW30 (parent)
chain: MESVVVGEPGMSEGRRGLGRGLSALLGEVDAAPAQAPGEQLGGSREAPIEILQRNPDQPRRTFREEDLEDLSNSIREKGVLQPILVRPSPDTAGEYQIVAGERAWRAAQRAGLKTVPIMVRELDDLAVLEIGIIENVQRADLNVLEEALSYKVLMEKFERTQENIAQTIGKSXSHVANXMRLLXLPDEVQSYLVSGELTAXHARAIAAAADPVALAKQIIEGGLSVRETEALARKAPNLSAGKSKGGRPPRVKDTDTQALESDLSSVLGLDVSIDHRGSTGTLTITYATLEQLDDLCNRLTRGI

Variants of: B1
Experiment: one-hybrid fitness for binding parS DNA (scaled: cognate 1, non-cognate 0); higher = stronger binding
Conditions: with parS DNA site
Summary of the method: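 Pre- and post-selection plasmids were Illumina-sequenced, three replicate libraries were pooled, and any variant with under 10 reads was removed. The libraries were Caulobacter ParB with four specificity codons randomised, selected in E. coli USO through a HIS3 reporter whose site is 19 bp from the promoter. Cells grew 48 hours at 37°C on M9 without histidine, with 0.1 mM IPTG and 5 mM 3-AT. Fitness is the log change in variant-to-wild-type read ratio, rescaled against cognate and non-cognate.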

one-hybrid fitness for binding parS DNA, 0.232:
WMMS

one-hybrid fitness for binding parS DNA, 0.68:
RAET

one-hybrid fitness for binding parS DNA, 0.941:
RCNC

one-hybrid fitness for binding parS DNA, 0.257:
RYKF

one-hybrid fitness for binding parS DNA, ≤ 0.2:
PSEG
EHAL
SQCK
AYAS
RALI
IDFR
AYCK
QPYY
GTAS
QEVS
IFRK
HGPT
TIKS
QWAR
FSPI
RSCR
CPTY
NFLN
HIEI
ILKC
RHRK
LRGL
RTDH
SLGN
HCNE
LRIH
PNTG
QAAI
PIRK
QLAC
TTDT
TYLV
WQRC
CTAC
YIIY
VCRC
MCLV
LFKP
NQLG
LNTF
GHQG
KWKA
RADV
TCVV
GNSV
PKYN
VEDC
TSVH
ESRD
SVFS
QIRI
DSLW
AMMK
AVGK
NMWL
CIAT
QCGP
STQY
NRSH
SLDS
FTSR
KCLY
NTTT
NLYH
EPDS
EVTC
SCEW
QKQM
KKQL
CMSS
PKCG
CASC
FEMC
GLTT
IPFD
RPVG
FTKV
CCPC
QTYR
PSWP
QRFN
QENC
RVYW
LWHP
CPLN
PGMI
QAGP
QFQA
YWHR
WSRR
VWKT
DSPR
LPMR
NIDG
KGSS
QGKP
AAHW
YVHT
GPIG
SLCM
YMKT
REAL
HAMT
AELM
NGIS
FRNT
TLKL
PKGS
QTRK
NVMS
PWEL
IHKC
QTAK
SNMG
TRSC
NPLV
PARS
CHNW
RVNE
SAAM
THGL
SMVL
LDYP
SGIW
RFAV
NEEY
WWLG
FYPG
SMPK
ENNW
PGTM
ICNC
CINR
TPAY
QATR
QEKS
NTLG
TEVS
MNSW
AQRV
CTTW
QMIW
QRKF
KRFH
EFAR
NHTC
VIQW
TMKG
NGVV
MNPG
YRFC
ECAS
EQLN
GKLV
RRCR
MPLA
PPQW
KYQR
LEIT
DGET
LPKE
KGGS
LTLL
QRLA
YTRD
HAMK
CTII
SHYS
YNLG
CAGT
CTGE
SRFC
VHPT
LTLV
SLMY
YLKT
ILCA
FFTC
CKGC
NLDS
QPPN
SRHP
GRTK
QHGL
PYYR
WYNY
MHHR
DMRN
IIKR
MVVT
LDWG
MHNM
IMQG
ATSD
VQPN
HSLR
RDLC
PPSI
KAAV
TPYA
HAFI
GKPN
YQRS
TFSV
DNAY
TYQE
AQIT
PHAY
VAVS
HHPK
YPGL
WFSS
HRNV
PMEG
TLAG
GSRS
PHFC
KVER
YSWG
PTYV
VAPC
DSTY
QRVT
TLQK
HADK
MDYT
FLMS
TPSM
WVNR
GNAS
SLLV
QELA
PQRH
HYKG
SLME
AILP
SWRY
GSNL
FCGG
YWNW
DWNR
CRRS
ERAS
TSHG
MHDY
ESGT
QYYS
NMWY
AVSL
IRMR
HMHR
ATYL
HTGM
FQRT
PDWR
VKLS
PRHT
YHNW
GCKS
DYRS
FVKS
QCNY
NMLD
YKCG
EDKT
HSNG
KRYC
QSYQ
CTHP
TRMS
SMGA
LTAH
QTWC
DPFE
SYQT
QAKW
TSWG
QFQI
TNET
TYPF
AEQK
FVKY
VETV
NQSR
PGHK
IYAR
MHTT
ILQS
EVVF
PYMN
CALT
RKML
SAEQ
ARSA
GLFE
CLLK
VAKE
ECGM

one-hybrid fitness for binding parS DNA, 0.259:
QEIP

one-hybrid fitness for binding parS DNA, 0.237:
EYIM

one-hybrid fitness for binding parS DNA, 0.99:
RSSS

one-hybrid fitness for binding parS DNA, 0.361:
RNHY
